Measured values reported in PubChem BioAssay AID686978 (National Center for Advancing Translational Sciences (NCATS), 2013).
Screen size: about 420,000 compounds; about 64,000 (15%) were called active. The shares of active, inactive and inconclusive entries below differ from those in the screen. Calls come from the whole dose curve; as a rule, active = well fitted inhibition curve with a large enough effect; inconclusive = small, poorly fitted or top-dose-only effect; inactive = flat fitted curve, though single readings scatter. Potencies of inconclusive entries are left out as doubtful fits.

Test: qHTS for Inhibitors of human tyrosyl-DNA phosphodiesterase 1 (TDP1): qHTS in cells in absence of CPT; note: nearly all actives have a fitted effect of over 55% in size
Settings: DT40 Tdp1-/- hTDP1 cells, no CPT, ATP luminescence, 48 h; activity change, negative = growth inhibition: at 46.2 µM (top of the series)
Outline: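 Compound effects on proliferation are scored in DT40 Tdp1-/-;hTDP1 cells in the absence of CPT. ATP levels (CellTiter-Glo luminescence) are recorded after a ≥48 hr, 37 °C incubation.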
% is set by controls: 0 for no effect and ±100 for the full control effect; potency is the fitted concentration of half-maximal effect; tags give direction and shape of the fitted curve.

| Compound | Potency | activity change, negative = growth inhibition |
| --- | --- | --- |
| CCOc1ccc(/C=C/C(=O)N(C)CC(=O)Nc2cccc(F)c2)cc1OCC | inactive | – |
| COc1cc(OC)c2c3c(c(C4CCCCC4)nc2c1)CCC3 | inconclusive [inhibitor, partial curve, poor fit] | – |
| CCOc1ccccc1N1C(=O)CC(N(O)c2ccccc2)C1=O (stereo not drawn) | inconclusive [inhibitor, partial curve] | – |
| Cc1nnc(NC(=O)CC23CC4CC(CC(C4)C2)C3)s1 | inconclusive [inhibitor, single point] | – |
| COc1ccc(OC)c(-n2c(SC)nnc2-c2c[nH]c3ccccc23)c1 | inconclusive [inhibitor, single point] | – |
| CCCCCCCC1(C)NC(=O)N(c2ccccc2)N1 (stereo not drawn) | inconclusive [inhibitor, partial curve] | – |
| O=S(=O)(Nc1ccccc1O)c1cccc2cccnc12 | inconclusive [inhibitor, single point] | – |
| CCOc1ccc(NC(=O)CSc2nnc(Cc3cccn3C)n2-c2ccc(OC)cc2)cc1 | inconclusive [inhibitor, single point] | – |
| COc1ccc(OC)c(CNC(=O)NCc2noc3ccc(C)cc23)c1 | inactive | – |
| COc1cc(OC)c2ccc(=O)oc2c1C(CCN1CCN(c2ccccc2)CC1)c1ccc2c(c1)OCO2 (stereo not drawn) | active: 16.4 µM | – |
| COc1ccc(N2CC(NC(=O)N3CCN(c4ccccc4)CC3)CC2=O)cc1 (stereo not drawn) | inconclusive [inhibitor, partial curve, poor fit] | – |
| Cc1ccc(OCC(=O)NC(=S)Nc2cccc(NC(=O)c3ccccc3Cl)c2)cc1 | – | inconclusive: -30.2% [inhibitor] |
| COC(=O)c1sccc1NC(=O)/C=C\c1ccc(Cl)cc1Cl | inconclusive [inhibitor, partial curve, poor fit] | – |
| COc1ccc(C(=O)N(C)CCCC2CCCC2)cc1OC1CCN(C(C)C)CC1 | inconclusive [inhibitor, single point] | – |
| CCN(CC)CCCN(Cc1cc2cc3c(cc2[nH]c1=O)OCO3)C(=S)Nc1ccccc1OC | inactive | – |
| C=C1C=C(C(F)F)n2ncc(C(=O)NCc3ccc(F)cc3)c2N1 | inconclusive [inhibitor, single point] | – |
| COCCCn1c(SCC(=O)Nc2ccc(C)cc2)nc2ccccc2c1=O | inconclusive [inhibitor, single point] | – |
| CC(=O)Nc1cccc(NC(=O)C(=O)c2cn(CC(=O)N3CCCC3)c3ccccc23)c1 | inconclusive [inhibitor, single point] | – |
| O=C(O)c1ccc(N2CC3CC(C2)c2cccc(=O)n2C3)c(NS(=O)(=O)c2cccc(C(F)(F)F)c2)c1 (stereo not drawn) | – | inconclusive: -30% [inhibitor] |
| Cc1c(N2C(=O)CSC2=S)c(=O)n(-c2ccccc2)n1C | inconclusive [inhibitor, single point] | – |
| C[C@@H]1OC(C2CCCCC2)N(C)[C@H]2C[C@H]3c4[nH]c5ccccc5c4CCN3C[C@@H]12 (stereo partly drawn) | inconclusive [inhibitor, single point] | – |
| COc1ccc(NC(=O)C(C)Sc2nnc3c4c(nc(-c5ccc(OC)cc5)n23)CC(C)(C)OC4)cc1 (stereo not drawn) | active: 14.6 µM | – |

| Compound | Potency | activity change, negative = growth inhibition |
| --- | --- | --- |
| CC1CC2OC2CC1COC(=O)C1CC2OC2CC1C (stereo not drawn) | – | inconclusive: -36.3% [inhibitor] |
| COc1ccc(C(=O)N(Cc2ccccc2)c2ccc(C)cc2)cc1S(=O)(=O)N1CCOCC1 | active: 14.6 µM | – |
| O=C1/C(=C\c2ccco2)NC(=S)N1c1ccccc1 | active: 29.1 µM | – |
| CCN(CC)CCn1c(NCc2ccc(C)o2)nc2ccccc21 | inconclusive [inhibitor, single point] | – |
| CCN1C(=O)c2ccccc2S(=O)(=O)c2ccc(C(=O)NCc3ccccc3OC)cc21 | inconclusive [inhibitor, single point] | – |
| COCCNC(=O)C(Cc1c[nH]c2ccccc12)NC(=O)OCc1ccccc1 (stereo not drawn) | inactive | – |
| CNC(=S)N(Cc1cccs1)Cc1cc2ccc(OC)cc2[nH]c1=O | active: 18.4 µM | – |
| COc1cccc(CSC(C(=O)O)c2ccccc2)c1 (stereo not drawn) | inactive | – |
| COc1ccc(Nc2cc(C)nc(N3CCN(C(=O)c4ccc5c(c4)OCO5)CC3)n2)cc1 | inconclusive [inhibitor, single point] | – |
| COc1ccc(OC(=O)Nc2ccccc2)cc1 | inactive | – |
| CCOc1ccc(S(=O)(=O)N2CCCCC2)cc1NC(=O)C1COc2ccccc2O1 (stereo not drawn) | inconclusive [inhibitor, single point] | – |
| Cc1csc(CN(C)C(=O)CC2C(=O)NCCN2Cc2ccc(-c3ccccc3)cc2)n1 (stereo not drawn) | inconclusive [inhibitor, single point] | – |
| O=C(CSc1cn(CC(=O)N2CCCCC2)c2ccccc12)NCc1ccccc1Cl | inconclusive [inhibitor, single point] | – |
| Cc1ccc(NC(=O)CN(C)CC(=O)Nc2sc3c(c2C(N)=O)CCC3)cc1 | inconclusive [inhibitor, single point] | – |
| CC1(C)CC(=O)C=C(c2ccccc2-c2ccc3cc[nH]c3c2)C1=O | inconclusive [inhibitor, partial curve, poor fit] | – |
| O=C(CCC1CCCN(C(=O)c2ccsc2)C1)N1CCN(c2ccccn2)CC1 (stereo not drawn) | inactive | – |
| CCCCCCN1C[C@@H](O)[C@H](n2cc(C3CC3)nn2)C[C@@H]1c1ccc(OC)cc1 | inconclusive [inhibitor, single point] | – |
| O=C(NNC(=O)c1ccccc1OCc1ccccc1Cl)c1csc(N2CCOCC2)n1 | inconclusive [inhibitor, single point] | – |
| Oc1sc(C=Nc2ccccc2)c2ccccc12 | inconclusive [inhibitor, single point] | – |
| COc1ccc(Nc2ncnc3nc[nH]c23)cc1OC | inconclusive [inhibitor, partial curve] | – |
| CCN(CC)c1ccc(S(=O)(=O)N2CCCCC2)cc1NC(=O)C1=COCCO1 | inconclusive [inhibitor, single point] | – |
